# According to the supplement of paper PMC3334620:
# In all, about 33,000 sequences were measured (“E-score (-0.5 to 0.5)”: median about -0.054, highest 2% from about 0.35 on). This is one part of the list.
# Target: T1, Stb5 (UniProt P38699)
# T1 sequence: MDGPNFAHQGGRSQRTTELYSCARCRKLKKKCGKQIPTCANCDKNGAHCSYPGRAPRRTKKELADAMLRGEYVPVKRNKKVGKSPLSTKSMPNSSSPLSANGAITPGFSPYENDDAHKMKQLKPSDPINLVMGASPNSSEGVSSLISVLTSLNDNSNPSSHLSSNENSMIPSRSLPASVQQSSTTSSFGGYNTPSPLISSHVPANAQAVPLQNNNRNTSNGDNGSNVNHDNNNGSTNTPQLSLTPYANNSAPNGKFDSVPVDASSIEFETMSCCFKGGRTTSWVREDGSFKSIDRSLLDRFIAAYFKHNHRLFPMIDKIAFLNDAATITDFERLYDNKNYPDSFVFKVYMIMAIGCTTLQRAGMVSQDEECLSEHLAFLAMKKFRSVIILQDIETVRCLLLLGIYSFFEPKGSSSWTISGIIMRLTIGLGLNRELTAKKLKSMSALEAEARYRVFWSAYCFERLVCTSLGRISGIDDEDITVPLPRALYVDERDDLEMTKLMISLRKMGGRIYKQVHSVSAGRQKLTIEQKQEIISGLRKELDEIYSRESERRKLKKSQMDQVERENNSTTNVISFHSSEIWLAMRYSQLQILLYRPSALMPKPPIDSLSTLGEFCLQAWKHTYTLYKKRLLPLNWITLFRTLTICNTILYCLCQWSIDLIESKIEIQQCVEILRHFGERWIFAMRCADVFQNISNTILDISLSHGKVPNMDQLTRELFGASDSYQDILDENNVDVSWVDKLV
# Test: PBM E-score (8-mer binding enrichment) (E-score (-0.5 to 0.5)); higher = stronger / more preferred TF binding; most listed sequences are background and not binding sites
# Conditions: protein concentration: 200 nM; construct: GST-full length
# In short: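 Detection of bound protein used fluorescent anti-GST, with scans normalised by masliner. The proteins were GST-tagged yeast transcription factors applied at about 100-200 nM to universal all-10-mer Agilent arrays made double-stranded by primer extension. Each ungapped eight-base word, pooled with its reverse complement, was scored with an E-score from the Universal PBM Analysis Suite.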
row,Sequence,PBM E-score
1,AAAGATTT,-0.0925
2,CACAGTAC,-0.201
3,CTCCATTC,-0.191
4,AAATCATT,-0.11
5,CTACGGTC,0.17
6,CTCGGGGC,0.215
7,AGAATCCC,0.0371
8,CCCTTTTC,-0.197
9,ATTGCTCC,0.234
10,CAGTCCGG,0.189
11,CACAACAC,-0.122
12,CATAGGCG,-0.114
13,TACACCTA,-0.109
14,CCTTCCAA,-0.194
15,GTATAGCA,-0.0177
16,GGGCAAAA,0.214
17,GAACGCTA,-0.11
18,GCAGGGAC,-0.244
19,GCTAGAGC,-0.0873
20,ACGGGCAT,0.363
21,AGACTGTG,-0.184
22,CTAATGTC,0.05
23,ATATCCGC,0.402
24,AGTTGTTC,-0.158
25,CAAAAAGG,-0.182

row,Sequence,PBM E-score
1,GTACGGAA,0.117
2,ATATCGGA,0.166
3,CAGCCTGG,-0.0787
4,CTCCTACC,0.0811
5,TACCCGTA,0.0685
6,TCGGATAA,0.272
7,AAAAGGGT,-0.27
8,TCTTATAA,0.214
9,ATCGCCGA,0.387
10,AGTCCCCA,-0.272
11,CGGTCAGA,0.17
12,CGCGTAAC,0.16
13,TCACTCCA,-0.135
14,CAGCGCTC,0.0694
15,ATTAAAGC,0.129
16,CTTCGCGA,0.0987
17,CGTTATAA,0.23
18,AGCAGTTC,-0.177
19,AAATGGAC,0.141
20,TCAGGTAA,-0.0797
21,AGGCCATC,-0.126
22,TACGGGGA,0.267
23,ATCAGCCA,-0.128
24,AAATAATG,-0.022
25,CCGAATAC,0.159

row,Sequence,PBM E-score
1,GGACGAAC,0.154
2,GCTAAGCA,0.0819
3,AACGTAGT,-0.132
4,ATATGGTA,-0.205
5,CACATTGA,-0.00508
6,GTAAGATA,0.0697
7,ACCCTGGC,-0.262
8,CGTTGTAA,-0.00989
9,TATCAAAA,-0.0856
10,GATCACAA,0.0269
11,ATATACAA,0.0395
12,CTCGTCAC,-0.166
13,ACTACATC,-0.147
14,GAAACGGC,0.202
15,CAACTTTA,-0.124
16,GCCCGAGA,0.0794
17,CCAAGCAC,-0.174
18,GTGTGTAA,-0.233
19,ACGATCGT,-0.249
20,AGAACCAC,0.0238
21,GGCCTGTA,-0.0679
22,CCTCTTGA,-0.421
23,GTGGGGAA,0.00123
24,AAGGCCAT,0.107
25,CTGCGCAC,0.0783

row,Sequence,PBM E-score
1,GCCGGTCA,0.198
2,GGTGTTAA,0.447
3,ACCATTGC,0.0412
4,GCGAAACA,-0.0698
5,CGAGTTAC,-0.104
6,AGAGGTTC,-0.0835
7,CTCACGAG,-0.214
8,CTCAATTC,-0.175
9,ATCATGCA,-0.289
10,ACACGTGC,-0.133
11,CAACGGTA,0.228
12,ATAAGGAC,-0.129
13,CACAGCAG,-0.283
14,ACGGGAGC,-0.0502
15,TAGGTCCA,-0.0733
16,CCAGATGA,-0.162
17,AATACGTA,0.087
18,ATTATCAC,0.137
19,TATCTTAA,-0.0272
20,AGTCTCAC,-0.0901
21,CATGAACG,-0.0401
22,GGGGGCGA,-0.0746
23,CAGCCACA,-0.141
24,AATCGATT,-0.0447
25,CCCAAGCC,-0.044

row,Sequence,PBM E-score
1,CTGGCACC,0.221
2,CTGCGTAC,-0.135
3,CACCGCAC,0.357
4,GCATGGCA,-0.0129
5,CAGCTTGG,-0.162
6,ACGGGTAA,-0.0254
7,GCGAAACC,0.0669
8,TCTATAGA,-0.0415
9,GCGCCCAA,0.0316
10,AAAGGAAC,0.0452
11,AGGCCCAT,-0.28
12,GAGGCCCC,-0.0211
13,CTAACCTC,-0.0311
14,CCGAGAGC,0.0793
15,ATTAGCAA,-0.06
16,ACCGCCGC,0.383
17,AAAGGTTA,-0.313
18,ACCGCGTC,0.182
19,TATCGTAA,-0.0935
20,GGTGATAC,0.369
21,AAAAGCAG,-0.395
22,TCCGGCGA,0.267
23,GACCTCCA,0.0344
24,AACGCGGC,0.225
25,CCGGACAA,0.321

row,Sequence,PBM E-score
1,GGAGTATA,0.315
2,CGGTCTTC,0.227
3,GTGATCGA,-0.171
4,CCCATGAG,-0.192
5,ATGAATGA,-0.12
6,GGAAAGCC,0.0225
7,ATTGGCCA,-0.198
8,TGGTGCAA,-0.166
9,GTCCCTTA,-0.0871
10,AACGACGA,-0.0943
11,GAGAGCTA,-0.161
12,GAAGATGA,-0.208
13,ACCGTACA,0.121
14,GTACGCCA,-0.13
15,ACTAAACG,-0.212
16,CTGACTAC,-0.144
17,ACCGGCGA,0.281
18,ACTGTGAT,-0.134
19,CTCTATAA,-0.145
20,TACTGACA,-0.152
21,CATATAGG,-0.105
22,ATAAGCAC,0.0792
23,AAACTATC,-0.115
24,CTGGGTGC,-0.0644
25,ACATCATC,-0.0646

row,Sequence,PBM E-score
1,GGCCAATA,0.162
2,CGATTCCG,0.243
3,AGCTTACA,-0.0474
4,CTCGTAGA,-0.338
5,GGGAGGAA,0.0313
6,TAGCGGCA,0.372
7,GAAGTGGA,0.0388
8,AAACCAGC,-0.0596
9,ATGTCCTA,0.0642
10,ACATCCCT,-0.186
11,TGTAGGAA,-0.147
12,AGGTTGAA,-0.025
13,CACGTCCC,-0.137
14,AAGAGCTG,-0.24
15,AAATACCG,0.432
16,AGGCCCAA,-0.133
17,TTATAGAA,-0.0532
18,CGCCACAG,-0.00771
19,ATTGAAAG,-0.0762
20,CCTGTTTC,-0.296
21,CCGAAATA,0.316
22,AGCAGTCA,-0.265
